Results on 28 molecules are retold here after PMC6919601, “Identification of Plasmodium dipeptidyl aminopeptidase allosteric inhibitors by high throughput screening” (PLoS ONE, 2019).

Among all 110,000 compounds or so, about 230 (0.21%) showed an effect of 50% or more. The list shows a part of the results.
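Further: 30 min substrate incubation versus DMSO and 10 µM JCP410 controls.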

DPAP1, sequence (Q8IIJ9 whole entry, looked up): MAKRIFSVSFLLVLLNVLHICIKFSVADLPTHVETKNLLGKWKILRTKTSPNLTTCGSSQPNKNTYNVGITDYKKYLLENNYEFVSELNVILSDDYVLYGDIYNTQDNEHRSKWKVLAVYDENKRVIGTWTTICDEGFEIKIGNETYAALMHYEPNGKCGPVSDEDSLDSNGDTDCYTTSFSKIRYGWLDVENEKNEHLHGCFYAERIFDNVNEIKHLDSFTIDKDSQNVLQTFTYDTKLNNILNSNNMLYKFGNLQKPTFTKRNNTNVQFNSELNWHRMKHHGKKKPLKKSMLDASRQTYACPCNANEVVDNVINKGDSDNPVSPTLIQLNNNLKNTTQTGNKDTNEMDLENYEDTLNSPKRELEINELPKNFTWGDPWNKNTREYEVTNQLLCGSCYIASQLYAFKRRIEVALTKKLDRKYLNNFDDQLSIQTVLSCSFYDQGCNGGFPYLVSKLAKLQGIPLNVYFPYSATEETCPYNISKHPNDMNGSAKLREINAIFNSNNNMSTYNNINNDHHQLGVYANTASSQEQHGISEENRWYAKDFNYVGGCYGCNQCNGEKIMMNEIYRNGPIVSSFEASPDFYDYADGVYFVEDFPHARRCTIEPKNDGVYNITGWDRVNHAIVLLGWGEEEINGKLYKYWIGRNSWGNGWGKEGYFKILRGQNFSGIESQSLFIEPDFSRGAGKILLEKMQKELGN

The experiment addresses DPAP1 (Plasmodium falciparum, UniProt Q8IIJ9). In words: primary screen, percent inhibition; read by cleavage of a fluorogenic dipeptide substrate; higher = more effect of the substance. Details: species or system P. falciparum D10 trophozoite lysates; single well.
`Cc1ccc(C(=O)N(C)Cc2ccccc2)cc1`: the “% Inhibition @ 10 uM” value is given as -2.12%.

With `Cc1cccc2sc(N(CCCN(C)C)C(=O)CCc3ccccc3)nc12`, the “% Inhibition @ 10 uM” value is recorded as 3.72%.

`CC(C)Oc1ccc(-c2cc(C(=O)Nc3ccncc3)c3ccccc3n2)cc1`: the “% Inhibition @ 10 uM” value stood at 0.214%.

As for `CCN(CCN(C)C)CC(C)CCC=C(C)C` (stereo not shown), the “% Inhibition @ 10 uM” value is listed as -5.65%.

In the case of `CCSc1nnc(NC(=O)c2cccn(OCc3cccc(C)c3)c2=O)s1`, the “% Inhibition @ 10 uM” value is on record as -7.18%.

In the case of `O=C(O)c1ccccc1C(=O)NC1CCCc2ccccc21` (stereo not shown), the “% Inhibition @ 10 uM” value is -4.29%.

On to `COc1cccc(OCCc2c(C)n[nH]c2C)c1`, for which the “% Inhibition @ 10 uM” value was found to be 0.24%.

As to `Cc1ccc(C2C(C(=O)c3ccc4c(c3)OCCO4)=C(O)C(=O)N2CCCn2ccnc2)cc1` (stereo not shown), the “% Inhibition @ 10 uM” value is listed as -2.84%.

In the case of `OC(CNCCc1ccccc1)COCCCN1CCOCC1` (stereo not shown), the “% Inhibition @ 10 uM” value is -3.85%.

Take `O=C(NCCc1ccccc1Cl)c1nc(O)c2nnn(Cc3ccccc3)c2n1`: the “% Inhibition @ 10 uM” value was -1.82%.

Regarding `COc1ccc(N2CCN(C(=O)CN(C)S(=O)(=O)c3ccc(C)cc3)CC2)cc1`, the “% Inhibition @ 10 uM” value is -5.35%.

`Cc1cc(C)c(C)c(C2C(C#N)=C(N)Oc3[nH]nc(C)c32)c1C` (stereo not shown): the “% Inhibition @ 10 uM” value was 2.42%.

With `COc1ccc(OC)c(C2CCN(S(=O)(=O)c3cc(-c4onc(C)c4C)ccc3OC)C2)c1` (stereo not shown), the “% Inhibition @ 10 uM” value is 0.359%.

`CN1CCN(C(=O)COc2ccc(Cl)cc2)CC1`: the “% Inhibition @ 10 uM” value is recorded as -4.02%.

Turning to `COc1ccc(CCNC(=O)c2ccc3snnc3c2)c(OC)c1`, the “% Inhibition @ 10 uM” value was determined as 3.24%.

With `OC1=C2C(=Nc3ncnn3C2c2ccc(OC(F)F)cc2)CCC1` (stereo not shown), the “% Inhibition @ 10 uM” value was -1.62%.

For the molecule `Cc1cc(C)nc(NS(=O)(=O)c2ccc(NC(=O)c3ccc(F)c(F)c3)cc2)n1`, the “% Inhibition @ 10 uM” value is given as 7.4%.

`CC(=O)c1coc2ccc3ccccc3c2c1=O`: the “% Inhibition @ 10 uM” value is -2.83%.

With `COc1ccc(OC)c(C(=O)c2oc3ccc(Br)cc3c2NC(C)=O)c1`, the “% Inhibition @ 10 uM” value was 2.69%.

For `CCC1CCc2c(sc(N)c2C(=O)OC)C1` (stereo not shown), the “% Inhibition @ 10 uM” value is 7.56%.

Turning to `Cc1cc(C)c(C#N)c(SCC(=O)Nc2nonc2-n2cccc2)n1`, the “% Inhibition @ 10 uM” value amounted to 1.32%.

Regarding `CC1CCN(S(=O)(=O)c2ccc3ncc(C(=O)N4CCCCCC4)c(O)c3c2)CC1`, the “% Inhibition @ 10 uM” value was found to be 1.16%.

On to `CCN(CC)CCCNC(=O)C1CCN(c2cc(C)nc3c(-c4ccc(Cl)cc4)c(C)nn23)CC1`, for which the “% Inhibition @ 10 uM” value was -0.138%.

For the molecule `Cc1c(C(=O)OC2CCCC2C)[nH]c2c1C(=O)CCC2` (stereo not shown), the “% Inhibition @ 10 uM” value is on record as 1.76%.

As for `Cc1nc2nc(-c3ccccc3)cn2nc1C`, the “% Inhibition @ 10 uM” value turned out to be 1.42%.

Take `COC1(c2ccc(C)cc2)C(=O)C(c2ccccc2)=C1OC(C)C` (stereo not shown): the “% Inhibition @ 10 uM” value is -1.22%.

With `N#CCNC(=O)C(Cc1cccc(-c2ccccc2)c1)CS(=O)(=O)Cc1ccccc1` (stereo not shown), the “% Inhibition @ 10 uM” value was -0.214%.

With `CCCCCCNC(=O)N[C@@H](CC1CCCCC1)C(=O)NCC#N`, the “% Inhibition @ 10 uM” value was found to be 2.86%.
